According to PubChem BioAssay AID1240 (Sanford-Burnham Center for Chemical Genomics, 2008):
The whole screen tested about 50,000 compounds, of which about 800 (1.6%) showed an effect of 50% or more. The list shows a part of the results.

Target: Bcl-2-like protein 10 (Homo sapiens) (UniProt Q9HD36)
Experiment: Phenotype converters, Bcl-B/TR3 peptide binding displacement, primary biochemical FP (AID 1240);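 note: 0% = Bcl-B with tracer peptide and DMSO and 100% = tracer peptide lacking Bcl-B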
Settings: GST-Bcl-B / FITC-TR3 peptide fluorescence polarization; stronger effect = higher value; compound at 3.75 mg/L

Chain of UniProt Q9HD36 (Q9HD36 whole entry, looked up): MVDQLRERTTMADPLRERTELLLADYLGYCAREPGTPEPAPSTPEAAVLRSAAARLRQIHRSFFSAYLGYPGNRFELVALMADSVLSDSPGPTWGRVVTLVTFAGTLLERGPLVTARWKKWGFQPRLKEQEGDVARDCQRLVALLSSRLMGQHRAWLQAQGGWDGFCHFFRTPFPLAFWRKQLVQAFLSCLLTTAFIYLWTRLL

Compound	displacement [%]
O=C(NC(=S)Nc1ccc(Cl)c(-c2nc3ccccc3o2)c1)c1ccco1	5.1
Cn1c(=O)c2c(ncn2CC(=O)NC2CCCC2)n(C)c1=O	-5.9
O=C1OC(c2ccccc2F)=N/C1=C\c1cccc([N+](=O)[O-])c1	9.9
O=C(O)c1cn(-c2ccccc2)nc1-c1ccc(F)cc1	3.1
CCCCOC(=O)c1ccc(NC(=O)c2oc3ccc(C)cc3c2C)cc1	4.6
CCC1CCCCN1CC(O)COCCC12CC3CC(CC(C3)C1)C2 (stereo not drawn)	10.8
O=C(COc1ccccc1Cl)Nn1cnnc1	-5.3
Cc1csc(/C(C#N)=C/c2ccccc2Cl)n1	21
COc1cccc(OCCCOc2ccc(C)cc2C)c1	3.9
N#Cc1c(/N=C/N2CCCC2)sc2c1CCCC2	0.1
COc1ccc(CSC2=NCCN2)cc1Br	0.4
Cc1cc(OCC(=O)Nc2ccc3c(c2)OCO3)ccc1Cl	12.4
COC(=O)C1(C(=O)OC)CCCC1(C(=O)OC)C(=O)OC	1.2
COc1cccc(/C=C2\SC(=S)N(c3cccc(Br)c3)C2=O)c1	9.7
COc1ccc(Cl)cc1N(CC(=O)Nc1cccc2cccnc12)S(=O)(=O)c1ccc(C)cc1	-9.2
CCOc1ccc2nc(SCc3ccccn3)sc2c1	-31
Cc1nnc(SCC(=O)Nc2ccc3c(c2)oc2ccccc23)s1	-8.5

Compound	displacement [%]
CN1CCCC1=NC(=S)CN1CCCC1=S	27.7
N/C(=N\OC(=O)CCc1ccccc1)c1ccc(Cl)cc1	11
COc1ccc(-c2cc(C(=O)Nc3nc(-c4ccccc4)c(C)s3)c3ccccc3n2)c(OC)c1	-14.2
COc1ccc(Cl)cc1NC(=O)CCN1C(=O)c2ccccc2C1=O	-16.4
Cc1ccc(S(=O)(=O)N(Cc2ccccc2)c2ccccc2C(=O)NC(C)C)cc1	5.9
CCOP(=O)(OCC)C(Nc1ccc(I)cc1)c1ccc(O)cc1 (stereo not drawn)	12.6
COc1ccccc1-c1cc(-c2ccccc2)nc(SC(C(N)=O)c2ccccc2)c1C#N (stereo not drawn)	0.6
COC(=O)C1=NN(C(=O)c2ccc(C)cc2)C(O)(c2ccc(Cl)cc2)C1 (stereo not drawn)	-3.6
O=C1N=C(N2CCCCCC2)S/C1=C\c1ccccc1Cl	-15.1
Cc1ccc(C(=O)Nc2c(C(=O)Nc3ccccc3)cnn2-c2ccccc2)cc1	23.8
CCOC(=O)c1c(N)sc(C)c1CC	-10.9
O=C(Nc1ccc(Oc2ccccc2)cc1)C1COc2ccccc2O1 (stereo not drawn)	-7.4
COc1ccccc1/C=N/NC(=O)C1CC(=O)N(c2ccccc2)C1 (stereo not drawn)	-6.2
CC1(C)Cc2ccccc2-c2nnc(C(F)(F)F)n21	7.1
COc1nccnc1NS(=O)(=O)c1ccc(N)cc1	-1.2
COc1ccccc1C1SCCN1S(=O)(=O)c1ccc(-c2ccccc2)cc1 (stereo not drawn)	16.3
